In paper PMC8396186:
Changes are numbered by the printed parent chain. No constants are given. Whether binding was seen depends on the method and setting. For some assays here: Binding seen in cells or lysates may run through a third protein. Some entries that bind do so weakly or less than the wild type. Where a sequence is shown, tags or fusion partners need not be part of it. Each block holds one substance with its values, some of them ahead of it.

Amino acid sequences for entries named in this document (tags omitted).
UniProt Q92905: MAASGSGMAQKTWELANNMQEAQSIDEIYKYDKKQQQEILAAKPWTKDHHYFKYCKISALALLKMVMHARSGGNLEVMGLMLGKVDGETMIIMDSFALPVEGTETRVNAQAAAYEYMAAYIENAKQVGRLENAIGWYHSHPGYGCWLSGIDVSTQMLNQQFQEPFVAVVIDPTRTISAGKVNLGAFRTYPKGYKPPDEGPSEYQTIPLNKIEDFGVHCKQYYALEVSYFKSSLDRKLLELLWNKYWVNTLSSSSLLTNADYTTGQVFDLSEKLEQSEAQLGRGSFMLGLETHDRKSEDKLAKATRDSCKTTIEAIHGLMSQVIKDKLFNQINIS

Assays:
[1] = target: T1, FLAG-SCP3 in CaSki-SCP3 cells (human) (UniProt Q8IZU3); assay: co-IP; CaSki-SCP3 cells lysed in NP40 lysis buffer; immunoprecipitation with anti-FLAG or rabbit IgG 16 h, Western blot for endogenous JAB1
T1 sequence: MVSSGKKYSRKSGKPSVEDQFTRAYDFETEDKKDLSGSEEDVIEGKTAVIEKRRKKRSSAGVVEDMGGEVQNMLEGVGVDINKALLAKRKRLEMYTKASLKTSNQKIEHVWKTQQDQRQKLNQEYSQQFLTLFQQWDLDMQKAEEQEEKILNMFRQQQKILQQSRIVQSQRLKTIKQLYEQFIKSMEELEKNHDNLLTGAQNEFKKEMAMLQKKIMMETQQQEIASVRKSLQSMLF

GFP-SCP3 D116G (human) = target: T2, GFP-SCP3 D116G (human) (UniProt Q8IZU3); assay: co-IP; HEK293 cells co-transfected with GFP-SCP3 constructs and FLAG-JAB1, 48 h; NP40 lysis buffer (50 mM Tris-HCl pH 8.0, 5 mM EDTA, 150 mM NaCl, 1% NP40); immunoprecipitation with GFP antibody 16 h, Western blot with GFP and FLAG antibodies
T2 sequence: T1 sequence with D116G

GFP-SCP3 D139G (human) = target: T3, GFP-SCP3 D139G (human) (UniProt Q8IZU3); assay: as above
T3 sequence: T1 sequence with D139G

[2] = target: T4, GFP-SCP3 (pEGFP-SCP3), wild type (human) (UniProt Q8IZU3); assay: as above
T4 sequence: T1 sequence

[3] = target: T5, Synaptonemal complex protein 3 (SCP3), full-length human, GAL4 DNA-binding domain fusion (pBD-GAL4-SCP3 bait) (human) (UniProt Q8IZU3); assay: two-hybrid; bait pBD-GAL4-SCP3 in yeast AH109, prey from a HeLa cell library and then full-length pAD-JAB1; growth over 3 days on medium lacking Leu, Trp, His and Ade
T5 sequence: T1 sequence

binding [1]: binds
Substance: Endogenous JAB1 of CaSki-SCP3 cells (from UniProt Q92905 1-334)

binding (GFP-SCP3 D116G (human)): binds | binding (GFP-SCP3 D139G (human)): no binding | binding [2]: binds
Substance: FLAG-JAB1 (p3xFLAG CMV7.1-JAB1) (from UniProt Q92905 1-334)

binding [3]: binds
Substance: Jun activation domain-binding protein 1 (JAB1), full-length human, GAL4 activation domain fusion (pAD-JAB1 prey) (from UniProt Q92905 1-334)
